Data on 20 molecules can be found in PubChem BioAssay AID588579 (National Center for Advancing Translational Sciences (NCATS), 2011).

Out of some 400,000 compounds screened, about 2,200 (0.55%) were called active. About 1% were inconclusive and are not listed. Calls follow the shape of the dose curve; as a rule, active = well fitted inhibition curve with a large enough effect; inconclusive = small, poorly fitted or top-dose-only effect, or another doubt; inactive = no such curve, though single readings can be large or run the other way. Only a part is listed here, and it is no random draw.
% is scaled to controls: 0 for no effect and ±100 for the full control effect; potency is read from the fitted curve at half-maximal effect.

The target in this test is DNA polymerase kappa (Homo sapiens) (UniProt Q9UBT6). Kind of test: qHTS for Inhibitors of Polymerase Kappa. As to conditions: purified Pol kappa, fluorescent DNA synthesis assay, 10 min; series mostly up to 107 µM; activity, negative = inhibition: at the top concentration. The method, boiled down: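 Activity was followed as the change in fluorescence between reads at 0 and 10 min after starting the reaction with 50 nM substrate. Beforehand, 10 nM polymerase had been preincubated with compound for 15 min at room temperature.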
UniProt Q9UBT6, sequence (Q9UBT6 whole entry, looked up): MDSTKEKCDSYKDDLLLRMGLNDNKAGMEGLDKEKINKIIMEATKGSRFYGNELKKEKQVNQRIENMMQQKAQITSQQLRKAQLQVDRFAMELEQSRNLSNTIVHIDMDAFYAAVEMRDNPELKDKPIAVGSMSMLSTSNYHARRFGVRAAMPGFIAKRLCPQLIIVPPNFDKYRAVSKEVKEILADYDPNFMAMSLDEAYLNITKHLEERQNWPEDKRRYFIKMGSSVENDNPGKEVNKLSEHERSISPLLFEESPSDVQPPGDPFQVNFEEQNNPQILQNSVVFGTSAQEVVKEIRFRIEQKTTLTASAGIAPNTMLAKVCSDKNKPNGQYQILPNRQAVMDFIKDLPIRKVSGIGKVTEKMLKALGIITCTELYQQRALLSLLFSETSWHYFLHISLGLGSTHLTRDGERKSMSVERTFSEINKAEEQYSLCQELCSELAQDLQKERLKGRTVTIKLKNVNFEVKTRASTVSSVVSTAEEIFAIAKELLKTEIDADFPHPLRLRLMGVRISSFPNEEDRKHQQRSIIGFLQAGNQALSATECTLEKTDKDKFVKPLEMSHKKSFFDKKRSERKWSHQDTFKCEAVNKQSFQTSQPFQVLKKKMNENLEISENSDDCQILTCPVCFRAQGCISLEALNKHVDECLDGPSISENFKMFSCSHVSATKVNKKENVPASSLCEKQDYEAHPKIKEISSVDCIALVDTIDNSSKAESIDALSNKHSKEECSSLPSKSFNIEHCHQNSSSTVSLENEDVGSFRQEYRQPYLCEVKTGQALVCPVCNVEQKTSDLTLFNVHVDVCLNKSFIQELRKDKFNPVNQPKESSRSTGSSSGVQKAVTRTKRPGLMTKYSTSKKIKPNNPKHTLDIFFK
(In general: In qHTS, concentration-response curves come from the screen itself.)
For `CCCc1cc(C(=O)N2CCN(C(c3ccccc3)c3ccccc3)CC2)no1`, the Potency was active: 89.1 µM.
Turning to `CC1(C)[C@@H](O)CC[C@]2(C)C3C(=O)C=C4C5C[C@@](C)(C(=O)O)CC[C@]5(C)CC[C@@]4(C)[C@]3(C)CC[C@@H]12` (stereo not given in full), the activity, negative = inhibition was inactive: -7.56% [at 19.4 µM].
On to `Cc1cc(-c2ccc(N=Nc3c(S(=O)(=O)O)cc4cc(S(=O)(=O)O)cc(N)c4c3O)c(C)c2)ccc1N=Nc1c(S(=O)(=O)O)cc2cc(S(=O)(=O)O)cc(N)c2c1O`, for which the Potency is active: 0.891 µM.
Turning to `Cc1nc2ccc3nc(NC(=O)c4ccc5c(c4)OCCO5)sc3c2s1`, the “activity, negative = inhibition” value is inactive: -29.1%.
For the molecule `Oc1ccc(-c2csc(-c3cccnc3)n2)cc1O`, the Potency was active: 31.6 µM.
In the case of `COc1ccc(-c2nn(CCC(=O)O)cc2/C=C2\SC(N)=NC2=O)cc1`, the Potency was active: 79.4 µM.
On the same count and under the same terms, the value for `Nc1ncnc2c1c(-c1ccc(Oc3ccccc3)cc1)cn2C1CCCC1` was “inactive”; that for `C=CC1(C)CC(=O)C2(O)C(C)(O1)C(OC(C)=O)C(O)C1C(C)(C)CCC(O)C12C` (stereo not given) was “inactive”; that for `O=C(N/N=C/c1cc(Br)c(O)c(Br)c1)c1cc2c(ccc3ccccc32)o1` was active: 20 µM.
Turning to `CN(C)c1ccc(/C=C2\SC(=S)N(Nc3ncc(C(F)(F)F)cc3Cl)C2=O)cc1`, the Potency was active: 17.8 µM.
On the same count and under the same terms, under `O=[N+]([O-])c1ccc(-[n+]2ccc3ccccc3c2)c([N+](=O)[O-])c1` stands active: 79.4 µM.
Still for that read-out and setting: under `Oc1ccc(-c2cn3c(n2)SCC3)cc1O` stands active: 7.08 µM; under `Oc1c(/C=C/C=C/C=Nc2ccccc2)sc(=S)n1Cc1ccccc1`, active: 79.4 µM.
Turning to `O=C1/C(=C\c2ccc(O)c(O)c2)Oc2c1ccc(O[C@@H]1O[C@H](CO)[C@@H](O)[C@H](O)[C@H]1O)c2O`, the Potency was active: 31.6 µM.
In the case of `CCCCNC(=O)c1cnc2c(-c3ccc(OCC)c(OCC)c3)c(C)nn2c1-c1ccccc1`, the “activity, negative = inhibition” value was inactive: 28%.
Consider `O=C1c2ccccc2C(=O)c2c1ccc(O)c2O`, for which the “activity, negative = inhibition” value was inactive: -23.3%.
For `Cc1c2cnn(CC(=O)Nc3c(F)c(F)cc(F)c3F)c(=O)c2c(C)n1Cc1ccccc1F`, the Potency was active: 44.7 µM.
Take `O=C(OCC1OC(OC(=O)c2cc(O)c(O)c(OC(=O)c3cc(O)c(O)c(O)c3)c2)[C@@H](OC(=O)c2cc(O)c(O)c(OC(=O)c3cc(O)c(O)c(O)c3)c2)C(OC(=O)c2cc(O)c(O)c(OC(=O)c3cc(O)c(O)c(O)c3)c2)C1OC(=O)c1cc(O)c(O)c(OC(=O)c2cc(O)c(O)c(O)c2)c1)c1cc(O)c(O)c(OC(=O)c2cc(O)c(O)c(O)c2)c1` (stereo not given in full): the Potency was active: 0.006 µM.
Regarding `COC(=O)C1=CO[C@@H](O[C@@H]2O[C@H](CO)[C@@H](O)[C@H](O)[C@H]2O)C2C1C=C[C@@]2(O)CO` (stereo not given in full), the “activity, negative = inhibition” value was inactive: -15.7%.
On to `O=C1NC(=S)S/C1=C\c1ccc(SCc2ccco2)o1`, for which the Potency is active: 1.78 µM.
